From PubChem BioAssay AID588342 (National Center for Advancing Translational Sciences (NCATS), 2011)
The whole screen tested about 360,000 compounds, of which about 25,000 (6.9%) were called active. The inconclusive results got no clear call from the source; some entries with a clear call stand among them for comparison. The call rests on the fitted dose curve; in most records, active means well fitted inhibition curve with a large enough effect; inconclusive means small, poorly fitted or top-dose-only effect; inactive means flat fitted curve, though single readings scatter. Potencies of inconclusive entries are doubtful fits and often do not repeat.

target: Luciferin 4-monooxygenase (Photinus pyralis) (UniProt P08659); assay: qHTS profiling assay for firefly luciferase inhibitor/activator using purifed enzyme and Km concentrations of substrates (counterscreen for miR-21 project); details: purified FLuc, luminescence inhibition; activity change, negative = inhibition: at 57.5 µM (top of the series); further: nearly all actives have a fitted effect of over 55% in size;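 on activity change, negative = inhibition: plate controls were vehicle for no effect and reference inhibitor for full effect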
Sequence of UniProt P08659 (P08659 whole entry, looked up): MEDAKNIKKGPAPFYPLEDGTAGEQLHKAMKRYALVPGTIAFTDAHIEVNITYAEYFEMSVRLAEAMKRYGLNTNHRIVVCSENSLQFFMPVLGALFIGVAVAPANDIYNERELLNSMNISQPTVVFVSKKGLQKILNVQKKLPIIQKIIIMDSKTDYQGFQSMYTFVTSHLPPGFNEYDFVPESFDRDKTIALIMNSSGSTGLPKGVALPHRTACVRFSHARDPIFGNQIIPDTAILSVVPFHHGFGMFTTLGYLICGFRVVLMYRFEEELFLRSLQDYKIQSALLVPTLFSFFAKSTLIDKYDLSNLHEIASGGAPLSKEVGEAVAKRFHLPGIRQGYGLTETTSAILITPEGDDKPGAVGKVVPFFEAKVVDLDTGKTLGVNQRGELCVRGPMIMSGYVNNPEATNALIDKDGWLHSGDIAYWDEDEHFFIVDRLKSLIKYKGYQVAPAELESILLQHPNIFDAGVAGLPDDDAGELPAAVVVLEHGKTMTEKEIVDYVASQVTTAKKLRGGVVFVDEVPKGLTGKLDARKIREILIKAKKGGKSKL
Method in brief: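 Biochemical qHTS of compounds, final roughly 60 µM downward over six points, against 10 nM purified firefly luciferase using Km concentrations of substrates (10 uM D-luciferin, 10 uM ATP) in Tris acetate pH 7.5 buffer; luminescence output.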
Potency means the concentration at half of the fitted maximal effect; tags describe the fitted curve by direction and shape.

Row | SMILES | activity change, negative = inhibition | Potency
1 | O=C(Cc1coc2ccc3ccccc3c12)N1CCc2ccccc21 | inactive: 1.67% | –
2 | c1ccc(-c2noc(C34CC5CC(CC(C5)C3)C4)n2)nc1 | – | active: 10.7 µM
3 | O=C(O)CC1=C(Nc2ccccc2)C(=O)N(c2ccccc2)C1c1ccc(Br)cc1 (stereo not given) | – | inconclusive: 21.3 µM [inhibitor, partial curve]
4 | O=C(c1ccco1)N1CCN(c2ccnc3cc(Cl)ccc23)CC1 | inactive: 1.72% | –
5 | CCc1ccc(OCC(=O)N2CC(C(=O)OC)Oc3ccccc32)cc1 (stereo not given) | – | inconclusive: 30.1 µM [inhibitor, partial curve, poor fit]
6 | N#Cc1cnc2cc(-c3ccccc3)nn2c1N | – | inconclusive: 7.57 µM [inhibitor, partial curve, poor fit]
7 | Fc1ccc(-c2csc(-c3ccccn3)n2)cc1F | – | inconclusive: 6.01 µM [inhibitor, partial curve, poor fit]
8 | C=CCn1cc(/C=N\NC(=O)c2cc3c(ccc4ccccc43)o2)c2ccccc21 | – | inconclusive: 6.01 µM [inhibitor, full curve]
9 | O=C(OCc1ccccc1)c1ccc2c(c1)-c1ccccc1C2=O | – | inconclusive: 16.9 µM [inhibitor, partial curve]
10 | COc1ccc(S(=O)(=O)N2CCOC23CCN(S(=O)(=O)c2ccc([N+](=O)[O-])cc2)CC3)cc1 | inactive: 6.4% | –
11 | COc1ccc(C(=O)Nc2ccc3oc(-c4ccc(OC)cc4)nc3c2)cc1 | inactive: -13.4% | –
12 | COc1ccc(C(=O)NCCc2nnc(SCC(=O)Nc3ccc(Br)cc3)n2C)cc1 | – | inconclusive: 16.9 µM [inhibitor, partial curve, poor fit]
13 | N#CC(C#N)=C1C=CC=CN1/C(=C\c1ccco1)C(=O)c1ccc(Br)cc1 | – | inconclusive: 37.9 µM [inhibitor, partial curve, poor fit]
14 | Cc1ccc(/C=N/NC(=O)CSc2nc3ccccc3s2)o1 | – | inconclusive: 37.9 µM [inhibitor, partial curve, poor fit]
15 | Cc1ccc(-c2cc(C(=O)Nc3c(C#N)cnn3C)no2)cc1 | – | active: 6.75 µM
16 | CCOC(=O)Cc1csc(NC(=O)Cc2ccc(Br)cc2)n1 | – | inconclusive: 37.9 µM [inhibitor, partial curve, poor fit]
17 | N#C/C(=C\c1cccc(Cl)c1)C(=O)c1ccccc1 | – | inconclusive: 21.3 µM [inhibitor, single point]
18 | CCCNC(=O)c1nnsc1S(=O)c1ccc(Cl)cc1 (stereo not given) | – | inconclusive: 26.9 µM [inhibitor, partial curve, poor fit]
19 | CCOc1ccc(-c2cc(C(=O)N3CCN(c4cccc(C)c4)C(C)C3)c3ccccc3n2)cc1 (stereo not given) | – | active: 2.39 µM
20 | CN(C(=O)CSc1nc2ccc(NC(=O)CCc3ccccc3)cc2s1)c1ccccc1 | inactive: -12.3% | –
21 | COc1ccc(CC(=O)Nc2sc3c(c2C(=O)Nc2cccc(C)c2)CCCCC3)cc1 | – | inconclusive: 21.3 µM [inhibitor, partial curve, poor fit]
22 | COc1ccccc1CNC(=O)c1cnc(N(C)C)nc1 | inactive: -3.73% | –
23 | O=C(Cc1cnc2ncnn2c1)N1CCc2c([nH]c3ccccc23)C1c1ccccc1F (stereo not given) | inactive: -2.69% | –
24 | Cc1ccc(Nc2nc(CSc3nnc(-c4ccncc4)n3-c3ccccc3C)cs2)cc1 | – | active: 21.3 µM
25 | O=C1CSC(=S)N1/N=C/c1ccc(O)c(O)c1O | – | inconclusive: 37.9 µM [inhibitor, single point]

Row | SMILES | activity change, negative = inhibition | Potency
26 | CC1CCCCC1NC(=O)CSc1nnc(COc2ccccc2Cl)o1 (stereo not given) | – | active: 21.3 µM
27 | CCOC(=O)c1cnn(C(=O)c2ccccc2)c1N | – | active: 19 µM
28 | Cc1ccc(Cl)cc1Nc1sc(C(=O)c2ccc(F)cc2)c(N)c1S(C)(=O)=O | inactive: 0.688% | –
29 | O=C(O)Cc1ccc(NC(=O)c2cnccn2)cc1 | – | inconclusive: 26.9 µM [inhibitor, partial curve, poor fit]
30 | COC(=O)c1sc(N/N=C/c2ccc(C(C)C)cc2)nc1C | – | active: 19 µM
31 | O=C(COc1cccc2cccnc12)N1CCc2ccccc21 | – | inconclusive: 16.9 µM [inhibitor, partial curve, poor fit]
32 | CCCc1nnc(SCC(=O)NC2CC2)n1CC | inactive: 0.903% | –
33 | COc1cc(SC)ccc1C(=O)N(Cc1ccccc1)c1ccccc1 | inactive: 1.81% | –
34 | COc1cccc(/C=N/NC(=S)Nc2cccnc2)c1 | – | active: 15.1 µM
35 | COc1cc(CC2COC(=O)C2(O)Cc2ccc(O)c(OC)c2)ccc1O (stereo not given) | inactive: -1.09% | –
36 | COc1cccc(CNC(=O)Cc2csc3nc(-c4ccccc4)cn23)c1 | – | inconclusive: 15.1 µM [inhibitor, partial curve, poor fit]
37 | COc1ccc(-n2cc(CNC3CCOCC3)c(-c3cccc(F)c3)n2)cc1 | – | inconclusive: 26.9 µM [inhibitor, single point]
38 | Cc1csc(NC(=O)c2ccc(C)o2)n1 | – | active: 15.1 µM
39 | COc1ccccc1CCNC(=O)c1c(C)nn(CC(C)C)c1Cl | – | inconclusive: 16.9 µM [inhibitor, partial curve]
40 | O=C(/C=C/c1ccc2c(c1)OCO2)NC1CCCC1 | – | active: 15.1 µM
41 | N#C/C(=C\c1ccccc1Cl)C(=O)Nc1ccccn1 | – | active: 19 µM
42 | O=C(c1cc(-c2ccco2)nc2ccccc12)N1CCCC(C(F)(F)F)C1 (stereo not given) | – | inconclusive: 19 µM [inhibitor, partial curve]
43 | COc1ccccc1OCc1nnc(-c2ccccc2)o1 | – | inconclusive: 26.9 µM [inhibitor, partial curve, poor fit]
44 | COc1ccc(-c2nnc(-c3ccc(C)cc3)o2)cc1 | – | active: 1.9 µM
45 | O=C(N/N=C/c1ccccc1C(=O)O)c1ccccc1Br | – | inconclusive: 16.9 µM [inhibitor, partial curve]
46 | COc1ccc(C(=O)Nc2ccc(CN3CCS(=O)(=O)CC3)cc2)cc1 | – | inconclusive: 26.9 µM [inhibitor, partial curve]
47 | CC1=CC(=Nc2c(C)n(C)n(-c3ccccc3)c2=O)C=CC1=O | – | inconclusive: 26.9 µM [inhibitor, single point]
48 | O=c1cnnc(Nc2ccc(Nc3ccccc3)cc2)[nH]1 | – | inconclusive: 37.9 µM [inhibitor, partial curve, poor fit]
49 | C/C(=N\NC(=O)c1ccccc1Cl)c1ccccn1 | – | active: 23.9 µM
50 | CC1C(=O)NN=C1C(=O)N/N=C/c1cccs1 (stereo not given) | – | inconclusive: 30.1 µM [inhibitor, partial curve, poor fit]

Row | SMILES | activity change, negative = inhibition | Potency
51 | COc1ccc(/C=N/NC(=O)c2nc(-c3ccccc3)n(-c3ccccc3)n2)cc1OC | – | active: 16.9 µM
52 | CC(=O)c1ccc(NC(=S)NNC(=O)c2ccncc2)cc1 | – | active: 19 µM
53 | COc1ccccc1NS(=O)(=O)c1cccc(C(=O)OCc2nc3ccccc3s2)c1 | – | inconclusive: 23.9 µM [inhibitor, partial curve]
54 | CC1CCN(C(=O)COC(=O)c2n[nH]c(=O)c3ccccc23)CC1 | – | inconclusive: 16.9 µM [inhibitor, single point]
55 | C/C(=N/NC(=O)CN1CCN(S(=O)(=O)c2ccc(C)cc2)CC1)c1ccco1 | inactive: 4.71% | –
56 | COc1nc(NCc2ccco2)nc(NC2CCCCC2)n1 | – | inconclusive: 23.9 µM [inhibitor, single point]
57 | Cc1ccc(C(=O)Nc2ccc3ncccc3c2)cc1 | – | active: 0.107 µM
58 | Cc1ccc(-c2nc(SC(C)C(=O)c3c(N)n(C)c(=O)n(C)c3=O)n[nH]2)cc1 (stereo not given) | – | inconclusive: 26.9 µM [inhibitor, single point]
59 | Cc1cccc(Nc2nn3c(=O)c4cc5c(cc4nc3s2)OCO5)c1 | – | inconclusive: 1.69 µM [inhibitor, partial curve, poor fit]
60 | Cc1cc(C)nc(SCc2ccc(C(=O)N/N=C/c3ccccc3C(=O)O)cc2)n1 | – | inconclusive: 37.9 µM [inhibitor, partial curve, poor fit]
61 | Cc1ccc(C(=O)NCc2ccc3c(c2)CCN3C(=O)c2ccc(C)cc2)cc1 | – | inconclusive: 21.3 µM [inhibitor, single point]
62 | CCCc1sc(N/N=C/c2ccccn2)nc1-c1ccc(F)cc1 | inactive: -15.9% | –
63 | O=C(CSc1nnc(NC(=O)C2CC2)s1)Nc1cccc(F)c1 | – | inconclusive: 12 µM [inhibitor, partial curve]
64 | O=C(c1cc(-c2cccc(Cl)c2)nc2ccccc12)N1CCN(c2ccccn2)CC1 | – | active: 19 µM
65 | CCOC(=O)c1cc(-c2ccc(OC)c(S(=O)(=O)NC3CCCCC3)c2)on1 | inactive: 0.281% | –
66 | Cn1c(=O)[nH]c(=O)c2c1nc(Sc1nc3ccccc3s1)n2Cc1ccccc1 | – | inconclusive: 37.9 µM [inhibitor, partial curve, poor fit]
67 | CCOC(=O)c1cnc2c(c(C)nn2C)c1Oc1cc(Cl)cc(Cl)c1 | inactive: 2.65% | –
68 | CC(=O)c1ccc2c(ccc3ccccc32)c1 | – | active: 21.3 µM
69 | COc1ccc(/C=N/Nc2nc(-c3cccc(S(=O)(=O)N4CCCC4)c3)cs2)c(OC)c1 | – | inconclusive: 8.49 µM [inhibitor, full curve]
70 | CC(C)C(=O)OC1CCS(=O)(=O)c2sccc21 (stereo not given) | inactive: -0.587% | –
71 | O=C(Nc1cnn(Cc2ccc(Cl)cc2)c1)c1cccs1 | – | inconclusive: 30.1 µM [inhibitor, partial curve, poor fit]
72 | COc1ccc(CC(=O)NCCC(C)C)cc1S(=O)(=O)N1CCOCC1 | inactive: -1.83% | –
73 | CC1CCCN(c2nc(-c3ccccc3O)nc3ccccc23)C1 (stereo not given) | inactive: -1.36% | –
74 | C=CCn1c(SCC(=O)NCCOC)nnc1-c1cc2c(s1)CCC(CC)C2 (stereo not given) | – | active: 9.53 µM
75 | CCOc1ccc(-n2c(C)nc3cc(C(=O)NCc4ccc(C)cc4)ccc32)cc1 | – | inconclusive: 37.9 µM [inhibitor, partial curve, poor fit]
